Measured values taken from PMC5004831, “Molecular and biochemical characterization of carbonic anhydrases of Paracoccidioides” (Genetics and Molecular Biology, 2016).

Assays:
[1] = target: T1, rCA4 (CA4), alpha-class carbonic anhydrase of Paracoccidioides (Paracoccidioides brasiliensis, UniProt B1PIT4); assay: in-gel esterase activity, UV fluorescence; type: biochemical; settings: native 6% PAGE with 1% starch; 100 mM phosphate pH 6.5, 37 °C
T1 construct: 32 kDa
T1 sequence (B1PIT4 1-301): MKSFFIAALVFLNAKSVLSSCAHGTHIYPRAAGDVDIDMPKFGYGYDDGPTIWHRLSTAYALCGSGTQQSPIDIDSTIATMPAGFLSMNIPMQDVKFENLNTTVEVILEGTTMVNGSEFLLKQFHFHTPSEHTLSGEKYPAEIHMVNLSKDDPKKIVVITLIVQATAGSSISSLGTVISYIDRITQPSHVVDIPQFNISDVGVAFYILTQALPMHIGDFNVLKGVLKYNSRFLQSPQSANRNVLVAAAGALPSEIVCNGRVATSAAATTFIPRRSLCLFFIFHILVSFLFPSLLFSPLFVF

[2] = target: T2, rCA1 (CA1), beta-class carbonic anhydrase of Paracoccidioides (Paracoccidioides lutzii, UniProt C1H4M3); assay: in-gel esterase activity, UV fluorescence; type: biochemical; settings: native 6% PAGE with 1% starch; 100 mM phosphate pH 6.5, 37 °C
T2 construct: gene PAAG_05716; complete cDNA, 282 residues, GST fusion (pGEX-4T-3) from E. coli, GST cut by thrombin; 33 kDa
T2 sequence (C1H4M3 1-282): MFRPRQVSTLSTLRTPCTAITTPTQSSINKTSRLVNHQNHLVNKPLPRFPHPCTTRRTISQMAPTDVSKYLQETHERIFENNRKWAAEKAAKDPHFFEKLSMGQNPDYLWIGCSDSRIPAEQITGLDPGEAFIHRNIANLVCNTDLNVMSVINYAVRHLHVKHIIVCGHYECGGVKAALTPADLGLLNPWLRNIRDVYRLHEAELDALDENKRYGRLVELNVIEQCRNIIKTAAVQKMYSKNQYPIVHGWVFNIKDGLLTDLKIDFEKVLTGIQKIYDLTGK

## CC(=O)Oc1ccc2c(C)cc(=O)oc2c1 [4-metillumbeliferil acetate]
[1]
  in-gel esterase activity, UV fluorescence: The proteins were visualized by the halo of hydrolysis (Figure 2D)
[2]
  in-gel esterase activity, UV fluorescence: The proteins were visualized by the halo of hydrolysis (Figure 2D)
